Test results from publication PMC4336329 (PLoS ONE, 2015).
Out of some 310,000 compounds screened, about 14,000 (4.5%) showed an effect of 50% or more. The effect is printed as a negative number. This is one part of the list.

Molecular target: human ether-à-go-go-related gene (hERG) potassium channel (human, UniProt Q12809)
Assay: primary screen, population patch clamp on CHO cells stably expressing hERG
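Note: peak tail current of the secondary pulse compared with the same well before compound.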

Chain of human ether-à-go-go-related gene (hERG) potassium channel (Q12809 whole entry, looked up): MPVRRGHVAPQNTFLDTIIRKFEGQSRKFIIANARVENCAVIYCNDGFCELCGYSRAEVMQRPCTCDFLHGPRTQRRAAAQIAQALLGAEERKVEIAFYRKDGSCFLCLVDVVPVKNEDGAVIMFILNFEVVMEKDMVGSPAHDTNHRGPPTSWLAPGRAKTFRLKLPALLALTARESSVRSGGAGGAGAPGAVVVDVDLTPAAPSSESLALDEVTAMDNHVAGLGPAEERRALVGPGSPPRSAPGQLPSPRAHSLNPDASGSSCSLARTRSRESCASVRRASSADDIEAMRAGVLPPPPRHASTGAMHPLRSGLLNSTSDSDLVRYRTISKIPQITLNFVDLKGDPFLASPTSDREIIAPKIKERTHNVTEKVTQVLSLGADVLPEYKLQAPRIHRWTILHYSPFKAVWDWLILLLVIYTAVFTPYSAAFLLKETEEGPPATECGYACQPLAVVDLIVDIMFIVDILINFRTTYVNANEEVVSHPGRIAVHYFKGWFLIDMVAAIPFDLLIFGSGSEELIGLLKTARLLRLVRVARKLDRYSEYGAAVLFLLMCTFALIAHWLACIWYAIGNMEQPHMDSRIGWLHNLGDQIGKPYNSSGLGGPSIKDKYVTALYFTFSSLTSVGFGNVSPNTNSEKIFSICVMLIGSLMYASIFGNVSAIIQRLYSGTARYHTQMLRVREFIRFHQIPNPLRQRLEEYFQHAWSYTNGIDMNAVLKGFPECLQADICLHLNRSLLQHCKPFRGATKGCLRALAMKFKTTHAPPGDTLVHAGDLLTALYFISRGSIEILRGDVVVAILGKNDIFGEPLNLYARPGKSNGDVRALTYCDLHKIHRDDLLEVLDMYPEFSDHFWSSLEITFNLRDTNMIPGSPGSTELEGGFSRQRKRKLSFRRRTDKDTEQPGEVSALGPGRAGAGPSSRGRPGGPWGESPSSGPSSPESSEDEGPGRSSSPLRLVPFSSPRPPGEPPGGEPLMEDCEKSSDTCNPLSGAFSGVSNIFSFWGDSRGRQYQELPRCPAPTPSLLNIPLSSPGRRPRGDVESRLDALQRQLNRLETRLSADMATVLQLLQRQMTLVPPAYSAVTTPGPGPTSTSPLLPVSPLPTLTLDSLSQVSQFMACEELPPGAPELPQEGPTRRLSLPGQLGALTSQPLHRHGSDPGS

Compared with `O=C(/C=C1\SC(=O)NC1=O)Nc1ccc(F)cc1`, `CCCNC(=O)Cn1c(-c2ccc(F)cc2)cc(C(=O)OCC)c1C` is higher in “hERG current change (%, negative = inhibition) at 10uM” value: 3.18% for the first, 5.8% for the second.

Compared with `CS(=O)(=O)N(CC(=O)N1CCN(c2ccccc2)CC1)c1ccc(Cl)c(C(F)(F)F)c1`, `O=C(c1ccc(F)cc1)N1CCN(c2cnn(-c3ccccc3)c(=O)c2Cl)CC1` is lower in “hERG current change (%, negative = inhibition) at 10uM” value: -2.43% for the first, -48.6% for the second.

First: COc1ccc(C2=NN(C(=O)CN3CCCCC3)C(c3ccc(OC)cc3)C2)cc1 (stereo not drawn)
Second: COc1ccc(-c2csc3ncnc(N4CCN(c5cccc(OC)c5)CC4)c23)cc1
The “hERG current change (%, negative = inhibition) at 10uM” value of the first is lower: -40.1% for the first, 5.39% for the second.

Compared with `CN(C)CC(C)(C)CNC(=O)CC1C(=O)NCCN1Cc1ccc(-c2ccccc2)cc1` (stereo not drawn), `CN(CC(=O)NCCc1ccccc1)S(=O)(=O)c1ccc(Br)cc1` is lower in “hERG current change (%, negative = inhibition) at 10uM” value: 2.56% for the first, -17.8% for the second.

Going from `COc1ccc(C(=O)COC(=O)CCNS(=O)(=O)c2ccc(NC(C)=O)cc2)c(OC)c1` to `CCN(CC(=O)Nc1ccc(NC(C)=O)cc1)C(=O)Cc1c(Cl)cccc1Cl`, the “hERG current change (%, negative = inhibition) at 10uM” value rises from -30.5% to 13.5%.

Compared with `COCc1cc(=O)[nH]c2cc(NC(=O)C(F)(F)F)c(C)cc12`, `COc1ccc(-c2cc(Nc3ccccc3NC(=O)C(F)(F)F)n(CCC#N)n2)cc1` is lower in “hERG current change (%, negative = inhibition) at 10uM” value: -5.35% for the first, -14.7% for the second.

Compared with `CC(C)NC(=O)NC(=O)CSc1ccc(S(=O)(=O)N2CCCC2)cn1`, `O=C(CSc1nnc(-c2ccccc2)n1Cc1ccco1)Nc1ccc(S(=O)(=O)N2CCCC2)cc1` is lower in “hERG current change (%, negative = inhibition) at 10uM” value: -10.8% for the first, -35.3% for the second.

First: CCOC(=O)CSC1=Nc2ccccc2C2=NC(CC(=O)NCc3cccs3)C(=O)N12 (stereo not drawn)
Second: CCN(CC)C(=O)c1ccccc1NC(=O)CN1C(=O)c2ccccc2S1(=O)=O
The “hERG current change (%, negative = inhibition) at 10uM” value of the first is lower: -22.8% for the first, 8.92% for the second.

Compared with `Nc1c(C(=O)Nc2ccccc2)sc2nc(-c3cccnc3)ccc12`, `Cc1nc(C(=O)Nc2ccccc2)sc1C1(C)CC(c2cccc([N+](=O)[O-])c2)=NO1` (stereo not drawn) is higher in “hERG current change (%, negative = inhibition) at 10uM” value: -3.23% for the first, 8.12% for the second.

Compared with `CCOC(=O)c1c(-c2ccccc2)csc1NC(=S)NC(=O)c1ccccc1`, `CCOc1ccc(S(=O)(=O)NCc2ccccn2)cc1NC(=O)c1ccccc1` is lower in “hERG current change (%, negative = inhibition) at 10uM” value: 21% for the first, -17.1% for the second.

First: COc1ccccc1NC(=O)CC1CCCC1
Second: COc1ccccc1NC(=O)Cn1c(C)cc(=O)c2cccc(OC)c21
The “hERG current change (%, negative = inhibition) at 10uM” value of the first is higher: 15.4% for the first, -33.3% for the second.

Going from `COc1ccc(N(C(=O)c2ccccc2OC(C)=O)C(C)C2CC2)cc1` (stereo not drawn) to `COc1cccc(C(=O)N2CCC(CCC(=O)Nc3cccc(C)c3)CC2)c1`, the “hERG current change (%, negative = inhibition) at 10uM” value falls from 2.38% to -28.6%.

Going from `O=C(CCc1ccccc1)NC(NC(=S)Nc1ccc(Cl)cc1)C(Cl)(Cl)Cl` (stereo not drawn) to `C/C(CC(=O)NCCc1ccccc1)=N\NC(=O)COc1ccc(Br)cc1`, the “hERG current change (%, negative = inhibition) at 10uM” value falls from 8.38% to -21.3%.

Going from `CCCC(=O)Nc1cccc(Oc2nc(C)cc(C)c2C#N)c1` to `C=CCn1c(C)cc(C(=O)COc2nncc3ccccc23)c1C`, the “hERG current change (%, negative = inhibition) at 10uM” value rises from 6.51% to 9.33%.

First: CN(C)CC(C)(C)CNC(=O)c1cc(Br)cc(Br)c1O
Second: COC(=O)CS(=O)(=O)c1cc(Br)cc2c1N(C(C)=O)CC2
The “hERG current change (%, negative = inhibition) at 10uM” value of the first is lower: -5.01% for the first, 5.36% for the second.

First: CC(C)C[C@@H](CO)N1CCN(CC(C)C)CCC1=O
Second: CC(C)N1CCN(Cc2ccsc2)CC1CCO (stereo not drawn)
The “hERG current change (%, negative = inhibition) at 10uM” value of the first is higher: 4.64% for the first, -4.25% for the second.

First: CCOC(=O)COc1nc(C)c(Br)c(OC)n1
Second: CCOC(=O)c1c(NC(=O)COC)sc(C(C)=O)c1C
The “hERG current change (%, negative = inhibition) at 10uM” value of the first is lower: 5.01% for the first, 11.4% for the second.

First: CCn1c(=NC(=O)C2COc3ccccc3O2)sc2c(OC)ccc(OC)c21 (stereo not drawn)
Second: COc1ccc(N=c2oc3c(OC)cccc3cc2C(=O)NCc2ccco2)cc1OC
The “hERG current change (%, negative = inhibition) at 10uM” value of the first is higher: 8.6% for the first, -9.99% for the second.

Compared with `Cn1c(=O)[nH]c(=O)c2c1nc(NN)n2CCOc1ccccc1`, `CN(C)C(CNC(=O)CCCOc1ccccc1)c1ccco1` (stereo not drawn) is lower in “hERG current change (%, negative = inhibition) at 10uM” value: 19.5% for the first, -6.68% for the second.

Going from `O=C(Nc1ccccc1F)c1ccc2ncsc2c1` to `COc1ccc2c(c1)c1nnc(SCC(=O)Nc3ccccc3F)nc1n2C`, the “hERG current change (%, negative = inhibition) at 10uM” value rises from 3.92% to 3.96%.

Going from `CC(NC(=S)NCCc1ccccc1)C(c1cccs1)N1CCN(C)CC1` (stereo not drawn) to `CC(CCc1ccccc1)NC(=O)c1cccc([N+](=O)[O-])c1` (stereo not drawn), the “hERG current change (%, negative = inhibition) at 10uM” value rises from -35.7% to -8.01%.

Compared with `CCOC(=O)[C@@H]1[C@H]2COc3ccc(Br)cc3[C@@H]2N2C(=O)N(c3ccc(OC)cc3)C(=O)[C@]12C`, `COc1ccc(C2/C(=C(/O)c3ccccc3)C(=O)C(=O)N2c2ccccn2)cc1` (stereo not drawn) is higher in “hERG current change (%, negative = inhibition) at 10uM” value: 10% for the first, 20.2% for the second.

Compared with `C=CCn1c(=O)c2ccccc2n2c(SCC(=O)/C(C#N)=C(\C)N)nnc12`, `Cc1nnc(SCC(=O)NC(C)(C)C)n1CCc1ccccc1` is lower in “hERG current change (%, negative = inhibition) at 10uM” value: -2.26% for the first, -9.81% for the second.

First: Nc1nc(N)c(C=Nc2ccc(Br)cc2)c(Nc2ccc(Br)cc2)n1
Second: C=CCn1c(COc2ccc(Cl)cc2)nnc1SCC(=O)Nc1ccc(S(N)(=O)=O)cc1
The “hERG current change (%, negative = inhibition) at 10uM” value of the first is higher: 24.2% for the first, -9.02% for the second.

Going from `CCC(=O)Nc1ccc(C(=O)CSc2nc3ccc(C)cc3[nH]2)cc1` to `CCC(=O)Nc1ccc(C(=O)Nc2cc(C)on2)cc1`, the “hERG current change (%, negative = inhibition) at 10uM” value falls from 6.93% to -9.54%.

Going from `O=C(NC1(C(F)(F)F)NC(=O)N(c2ccccc2F)C1=O)c1ccncc1` (stereo not drawn) to `CCN(CC(=O)Nc1c(F)cccc1F)C(=O)c1ccc2ccccc2n1`, the “hERG current change (%, negative = inhibition) at 10uM” value falls from 4.71% to -19.6%.

Compared with `O=C(NC1CCN(C(=S)NCc2ccco2)CC1)c1ccc(F)cc1`, `CN(CC(=O)Nc1cccc(F)c1)C(=O)c1ccc(OCC2CCCO2)cc1` (stereo not drawn) is higher in “hERG current change (%, negative = inhibition) at 10uM” value: -51.6% for the first, 4.44% for the second.

First: O=C1C=C(N2CCOCC2)c2ccccc2C1=O
Second: Cc1ccc(/C=C/C(=O)O)cc1S(=O)(=O)N1CCCc2ccccc21
The “hERG current change (%, negative = inhibition) at 10uM” value of the first is lower: -1.23% for the first, 12.2% for the second.

First: COc1ccc(Br)cc1CN1CCCCCCC1
Second: Clc1ccc(CN2CCCCCCC2)cc1Cl
The “hERG current change (%, negative = inhibition) at 10uM” value of the first is lower: -39.9% for the first, 3.83% for the second.

First: Cn1nnc2cc(NC(=O)N3CCN(c4ccccn4)CC3)ccc21
Second: CCOc1ccccc1N1CCN(CC(=O)NCCc2ccc(S(N)(=O)=O)cc2)CC1
The “hERG current change (%, negative = inhibition) at 10uM” value of the first is lower: 0.203% for the first, 12.2% for the second.

Going from `CCc1noc(C)c1C(=O)Nc1nc(-c2ccccc2)c(C(C)=O)s1` to `O=C(O)c1c(-c2ccccc2)oc2ccc(O)cc12`, the “hERG current change (%, negative = inhibition) at 10uM” value rises from -32.1% to 14.6%.

Compared with `CCOC(=O)c1cnc2c(cnn2C)c1NCCCN(C)C`, `COc1ccc(NC(=O)CSc2nccn2C)cc1S(N)(=O)=O` is higher in “hERG current change (%, negative = inhibition) at 10uM” value: -51.7% for the first, 10.3% for the second.

Going from `CCN(CC)C(=O)CSc1nnc(C2CCCCC2)o1` to `Cc1nn(C)c(C(=O)NNC(=S)NC2CCCCC2)c1Cl`, the “hERG current change (%, negative = inhibition) at 10uM” value rises from 5.14% to 10.4%.

Compared with `CSc1nc2c(c(=O)n1-c1ccc(C)cc1)SCC2`, `Cc1cc(C)n2nc(SC3CCCCN(C(=O)c4ccc(F)cc4)C3=O)nc2n1` (stereo not drawn) is lower in “hERG current change (%, negative = inhibition) at 10uM” value: 12.5% for the first, -21% for the second.

First: Cc1ccc(OCC(O)CNC2CCCC2)c(C)c1.Cl (stereo not drawn)
Second: CCOc1ccc2[nH]c(O)c(NC(C)=O)c2c1
The “hERG current change (%, negative = inhibition) at 10uM” value of the first is higher: 7.48% for the first, -5.02% for the second.

First: C1=CC(Cc2cncs2)c2ccccc21 (stereo not drawn)
Second: CCCN1C(=O)C(Cc2nc3ccccc3c(=O)n2-c2ccccc2)c2ccccc21 (stereo not drawn)
The “hERG current change (%, negative = inhibition) at 10uM” value of the first is higher: 0.216% for the first, -9.57% for the second.

Compared with `CCN(CC)c1nc(-c2cccc(OC)c2O)nc2ccccc12`, `COCC(C)OC(=O)c1c(N)n(Cc2ccco2)c2nc3ccccc3nc12` (stereo not drawn) is lower in “hERG current change (%, negative = inhibition) at 10uM” value: 4.29% for the first, -55.7% for the second.

First: CCCSc1ccc([C@@H]2[C@H]3C(=O)N(CC)C(=O)[C@H]3[C@]3(C(=O)OC)CCCCN23)cc1OC.O=C(O)C(F)(F)F
Second: COc1ccc(S(=O)(=O)N2CCCC2C(=O)NCC(=O)Nc2cccc(Cl)c2C)cc1 (stereo not drawn)
The “hERG current change (%, negative = inhibition) at 10uM” value of the first is higher: 1.84% for the first, -22.6% for the second.

First: CCCNC(=O)N(CCOC)CC1CCCN(C2Cc3ccccc3C2)C1 (stereo not drawn)
Second: COc1ccc(/C=C/CN2CCC(n3nccc3NC(=O)C3CC3)CC2)cc1
The “hERG current change (%, negative = inhibition) at 10uM” value of the first is higher: -47.8% for the first, -72.7% for the second.

First: O=C(NCc1nc2ccccc2[nH]1)C1=C[C@H](c2ccc(Br)cc2)C[C@H](OCc2ccc(CO)cc2)O1
Second: O=C(CN1C(=O)c2cccc3cccc1c23)Nc1ccccc1
The “hERG current change (%, negative = inhibition) at 10uM” value of the first is lower: 3.89% for the first, 20.2% for the second.

First: COc1ccc(N(CC(=O)Nc2cccc(N(C)S(C)(=O)=O)c2)S(=O)(=O)c2ccc(F)cc2)cc1
Second: COc1ccc(C(CNC(=O)c2cccc(NS(=O)(=O)c3ccc(C)c(F)c3)c2)N2CCOCC2)cc1 (stereo not drawn)
The “hERG current change (%, negative = inhibition) at 10uM” value of the first is lower: -10.5% for the first, -9.43% for the second.

First: Clc1ccc(Cn2cccn2)cn1
Second: O=C(c1ccc(Cl)c([N+](=O)[O-])c1)N1CCCc2ccccc21
The “hERG current change (%, negative = inhibition) at 10uM” value of the first is higher: 24.8% for the first, -10.9% for the second.

First: Cc1noc(C)c1COC(=O)CCCNC(=O)c1ccc(Cl)cc1
Second: COC(=O)[C@@H](NC(=O)/C=C/c1ccc(OC)cc1)C(C)C
The “hERG current change (%, negative = inhibition) at 10uM” value of the first is lower: -8.57% for the first, 10.3% for the second.

With `CC1(C)CSC(=NCCc2ccccc2)N1C(=O)c1ccc(C#N)cc1` the “hERG current change (%, negative = inhibition) at 10uM” value was -18.8%.
